# In PubChem BioAssay AID1347165 (National Center for Advancing Translational Sciences (NCATS), 2019):
# Hit rate of the full screen: of about 220,000 compounds, about 5,700 (2.6%) were called active. The inconclusive results got no clear call from the source; some entries with a clear call stand among them for comparison. Calls come from the whole dose curve; as a rule, active = well fitted inhibition curve with a large enough effect; inconclusive = small, poorly fitted or top-dose-only effect; inactive = no such curve, though single readings can be large or run the other way. Where the call is inconclusive, the potency comes from a doubtful curve fit.
# Target: Lysine-specific demethylase 5B (Homo sapiens) (UniProt Q9UGL1)
# Assay: Primary screen for KDM5B Histone Demethylases FDH-coupled qHTS; note: nearly all actives have a fitted effect of over 70% in size; for activity change, negative = inhibition: 0% is about no effect
# Details: FDH-coupled NADH fluorescence (FDH is formaldehyde dehydrogenase); activity change, negative = inhibition: at 57.7 µM (top of the series) unless noted
# Method in brief: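 KDM5BΔAP (200 nM final) in 50 mM HEPES pH 7.5, 0.01% Tween-20 was preincubated 10 min at RT with compound over a concentration range. Substrate mix (H3K4me3 12.5 µM, α-KG 25 µM, Fe²⁺, ascorbate, NAD⁺, FDH) was added, and NADH fluorescence change over 30 min gave dose-response curves.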
# Potency is the fitted concentration of half-maximal effect; tags give direction and shape of the fitted curve.
# UniProt Q9UGL1, sequence (Q9UGL1 whole entry, looked up): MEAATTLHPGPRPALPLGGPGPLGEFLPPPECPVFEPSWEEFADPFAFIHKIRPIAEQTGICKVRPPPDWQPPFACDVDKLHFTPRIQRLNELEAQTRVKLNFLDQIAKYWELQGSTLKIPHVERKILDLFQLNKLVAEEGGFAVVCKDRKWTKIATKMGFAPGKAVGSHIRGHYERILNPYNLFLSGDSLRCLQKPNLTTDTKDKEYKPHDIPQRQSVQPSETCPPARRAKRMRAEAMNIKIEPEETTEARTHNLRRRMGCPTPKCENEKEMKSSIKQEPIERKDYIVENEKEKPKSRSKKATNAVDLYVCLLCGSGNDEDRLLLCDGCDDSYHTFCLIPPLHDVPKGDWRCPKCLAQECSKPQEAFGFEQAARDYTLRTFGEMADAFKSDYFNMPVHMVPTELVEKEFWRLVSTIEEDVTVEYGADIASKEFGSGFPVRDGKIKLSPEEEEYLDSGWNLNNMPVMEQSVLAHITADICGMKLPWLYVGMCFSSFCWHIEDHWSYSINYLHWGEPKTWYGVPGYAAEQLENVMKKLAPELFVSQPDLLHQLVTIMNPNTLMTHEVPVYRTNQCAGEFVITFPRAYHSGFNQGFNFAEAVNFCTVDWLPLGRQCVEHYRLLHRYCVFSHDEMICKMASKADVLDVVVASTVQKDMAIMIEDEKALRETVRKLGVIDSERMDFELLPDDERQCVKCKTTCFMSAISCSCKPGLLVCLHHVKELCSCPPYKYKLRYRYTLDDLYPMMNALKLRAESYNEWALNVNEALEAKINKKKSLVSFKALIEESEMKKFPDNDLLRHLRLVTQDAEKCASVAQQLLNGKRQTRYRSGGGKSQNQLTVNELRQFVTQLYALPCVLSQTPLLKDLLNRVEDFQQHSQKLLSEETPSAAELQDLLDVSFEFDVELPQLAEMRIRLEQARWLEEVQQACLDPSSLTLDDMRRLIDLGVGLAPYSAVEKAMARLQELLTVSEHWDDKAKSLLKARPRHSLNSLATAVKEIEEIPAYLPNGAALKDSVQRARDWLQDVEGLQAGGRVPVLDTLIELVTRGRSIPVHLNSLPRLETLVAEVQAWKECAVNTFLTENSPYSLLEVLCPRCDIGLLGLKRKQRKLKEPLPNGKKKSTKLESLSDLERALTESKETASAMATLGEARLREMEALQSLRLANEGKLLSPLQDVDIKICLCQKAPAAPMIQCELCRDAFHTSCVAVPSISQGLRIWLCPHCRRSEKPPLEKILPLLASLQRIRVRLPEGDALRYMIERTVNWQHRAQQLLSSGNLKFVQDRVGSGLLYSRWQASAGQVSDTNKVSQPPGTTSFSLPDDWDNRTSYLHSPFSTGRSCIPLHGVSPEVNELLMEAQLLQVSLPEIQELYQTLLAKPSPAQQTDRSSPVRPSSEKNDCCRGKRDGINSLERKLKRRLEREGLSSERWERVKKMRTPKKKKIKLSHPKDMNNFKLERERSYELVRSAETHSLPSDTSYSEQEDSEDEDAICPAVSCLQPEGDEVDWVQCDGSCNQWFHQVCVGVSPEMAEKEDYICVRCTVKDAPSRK
Structure (SMILES),Potency,"activity change, negative = inhibition"
COc1ccccc1CN1CCCn2nc(C)c(-c3ccccc3[S+](C)(=O)[O-])c21,inactive,
O=C1CC(c2ccccc2)N(C(=O)CNC(=O)c2ccoc2)CCCCCCN1 (stereo not drawn),inactive,
COc1ccc(C(=O)N2CC[C@H]3C(=O)NCCCCCCN(Cc4ccncc4)[C@@H]3C2)c(OC)n1,"inconclusive: 20 µM [inhibitor, partial curve, poor fit]",
Fc1ccccc1CN1CCC[C@H]1c1nc(-c2ccnc(N3CCOCC3)c2)no1,"inconclusive: 31.6 µM [inhibitor, partial curve, poor fit]",
COc1ccccc1CNC(=O)C1CCN(C(=O)N2CC3CC(C2)[C@H]2CCCC(=O)N2C3)CC1 (stereo partly drawn),inactive,
Cc1cccc(OC[C@H]2C[C@@H](NC(=O)Nc3ccccc3)[C@H](O)[C@@H]2O)n1,"inconclusive: 25.1 µM [inhibitor, partial curve, poor fit]",
O=C(NC1(C(F)(F)F)C(=O)Nc2c1c(=O)[nH]c(=O)n2Cc1ccco1)c1cccnc1 (stereo not drawn),inactive,
CC(C)(C)c1ccc(C(=O)N2CCC3(CC2)N=C(c2ccccc2)NO3)cc1,"inconclusive: 39.8 µM [inhibitor, partial curve, poor fit]",
C=CCc1ccccc1OCCN(C)Cc1cc2ccc(F)cc2[nH]c1=O,"inconclusive: 20 µM [inhibitor, single point]",
COc1ccc(-c2nc3nccc(-c4ccsc4)n3n2)c(OC)c1,active: 17.8 µM,
Cc1ccc(NC(=O)C2CCCN2S(=O)(=O)c2ccc3nc(-c4ccccc4)[nH]c3c2)cc1F (stereo not drawn),"inconclusive: 15.8 µM [inhibitor, partial curve, poor fit]",
COC(=O)c1cc(-c2ccco2)nc2c(C)cccc12,"inconclusive: 25.1 µM [inhibitor, partial curve, poor fit]",
CN1CC(=O)N(c2ccc([N+](=O)[O-])cc2)Cc2c1ncnc2N1CCC(N2CCOCC2)CC1,"inconclusive: 39.8 µM [inhibitor, partial curve, poor fit]",
CCCCCCOc1ccc(/C=C/C(=O)c2ccc(OC)c(CSCC(=O)O)c2)cc1,"inconclusive: 39.8 µM [inhibitor, single point]",
CCn1c(CN(C)C)nnc1C1CCN(C(=O)c2cnn3ccccc23)CC1,"inconclusive: 25.1 µM [inhibitor, partial curve, poor fit]",
Cc1cccc(C(=O)Nc2ccc(C(=O)OCc3cc(=O)n4nc(C5CC5)sc4n3)cc2)c1,"inconclusive: 44.7 µM [inhibitor, single point]",
O=C(NCCn1cccc1-c1nc(-c2ccc3c(c2)OCO3)no1)c1cccc(Cl)c1,"inconclusive: 39.8 µM [inhibitor, single point]",
CC(C)[C@@H](N)C(=O)N[C@@H]1C=C(C(=O)N[C@@H](CCS(C)(=O)=O)C(N)=O)C[C@@H](O)[C@@H]1O,"inconclusive: 35.5 µM [inhibitor, partial curve, poor fit]",
c1ccc2c(c1)COC1(CCNC1)CN2CC1CCCCC1 (stereo not drawn),"inconclusive: 79.4 µM [inhibitor, partial curve]",
CCN(C(=O)Cn1cccc1-c1nc(-c2ccc(OC)c(F)c2)no1)c1ccccc1,"inconclusive: 25.1 µM [inhibitor, single point]",
O=C(c1ccco1)n1nc(-c2ccc(Cl)cc2)nc1NCc1ccccc1,"inconclusive: 28.2 µM [inhibitor, partial curve, poor fit]",

Structure (SMILES),Potency,"activity change, negative = inhibition"
Cc1ccc(N2C(=O)NC(NS(=O)(=O)c3ccc(Cl)cc3)(C(F)(F)F)C2=O)cc1C (stereo not drawn),"inconclusive: 2.51 µM [inhibitor, partial curve, poor fit]",
CCc1ccc(NC(=O)Cn2c(=O)n(Cc3nc(-c4ccccc4)no3)c(=O)c3cc4c(cc32)OCO4)cc1,"inconclusive: 5.01 µM [inhibitor, full curve, poor fit]",
CC(Sc1cc(Cl)ccc1Cl)C(=O)NC(C)c1ccccn1 (stereo not drawn),inactive,
COc1ccc(NC(=O)CCc2c(C)c3ccc(OC)cc3oc2=O)cc1,"inconclusive: 10 µM [inhibitor, partial curve, poor fit]",
COc1ccc(NC(=O)NCCn2c(C(F)(F)F)nc3ccccc32)cc1OC,inactive,
CC(C)(C)CN1CCNC(=O)C1CC(=O)O (stereo not drawn),"inconclusive: 39.8 µM [inhibitor, single point]",
Cc1nccn1-c1ccc(NC(=O)C2CCCN(c3ncccc3C#N)C2)cc1 (stereo not drawn),active: 28.2 µM,
CC(NC(C)C1CC2CCC1C2)C(=O)N(C)Cc1cccc(F)c1 (stereo not drawn),inactive,
O=C(NC1CCN(c2cc(-c3ccc(Cl)cc3)[nH]n2)C1)c1ccc(F)cc1F (stereo not drawn),"inconclusive: 7.08 µM [inhibitor, partial curve]",
Cc1ccc(-c2cn3c(n2)CO[C@@H](CNC2CCCC2)C3)cc1,"inconclusive: 31.6 µM [inhibitor, single point]",
COc1cccc(-c2ccccc2NC(=O)C2CCN(Cc3cc(F)ccc3F)CC2)c1,"inconclusive: 14.1 µM [inhibitor, single point]",
CCOc1ccccc1CN1CCCCCCNC(=O)[C@@H]2CCC[C@@H]21,"inconclusive: 17.8 µM [inhibitor, partial curve, poor fit]",
O=C(Nc1ccc(F)cc1Cl)c1nc2ccccc2nc1N1CCCC1,inactive,
CCOC(=O)CNC(=O)NCc1cccn1Cc1c(C)cc(C)cc1C,inactive,
Cc1cccnc1CC(C)NC(=O)c1csc2nc(-c3ccccc3Cl)cn12 (stereo not drawn),"inconclusive: 20 µM [inhibitor, partial curve]",
CCN1CCN(CCOc2ccc3cc(-c4ccccc4)c(=O)oc3c2)CC1,inactive,
COCC1CN(C2CCC2)CC12CCN(C(=O)c1ccc(F)c(F)c1)CC2 (stereo not drawn),"inconclusive: 14.1 µM [inhibitor, partial curve]",
COc1cccc(CC(=O)N[C@@H]2CN(Cc3ccncc3)C[C@H]2CN(C)C)c1,"inconclusive: 28.2 µM [inhibitor, partial curve, poor fit]",
CN(C)S(=O)(=O)c1ccc(-c2nc(C#N)c(NCCCN3CCOCC3)o2)cc1,inactive,
COc1ccccc1-c1cc(-c2cccnc2)c2cncn2c1,active: 39.8 µM,
COCCN1C(=O)C(=O)/C(=C(/O)c2ccc(OCc3ccccc3)cc2C)C1c1cccnc1 (stereo not drawn),inactive,

Structure (SMILES),Potency,"activity change, negative = inhibition"
O=C(CN(CCc1ccccc1)S(=O)(=O)c1ccc(Br)cc1)NCc1ccc(Cl)cc1,"inconclusive: 8.91 µM [inhibitor, partial curve, poor fit]",
O=C1CN(C(=O)Cn2c(=O)c3c(ncn3Cc3ccccc3)n(Cc3ccccc3)c2=O)CCN1,inactive,
CCC1CN(C(=O)C2CCN(S(=O)(=O)c3c(C)noc3/C=C/c3ccccc3F)CC2)c2cc(Cl)ccc2O1 (stereo not drawn),"inconclusive: 5.01 µM [inhibitor, partial curve, poor fit]",
Cc1oc(-c2cccs2)nc1CC(=O)Nc1ccccc1C(C)(C)C,"inconclusive: 22.4 µM [inhibitor, partial curve, poor fit]",
c1cc(CN2CCn3c(nnc3C3CCCNC3)C2)cs1 (stereo not drawn),inactive,
CCOC(=O)Cn1nc(-c2ccccc2)c2cnc3ccc(OCC)cc3c21,"inconclusive: 14.1 µM [inhibitor, partial curve, poor fit]",
CC(=O)Nc1cccc(C(C)NC(=O)Nc2ccc(C(F)(F)F)cc2)c1 (stereo not drawn),inactive,
O=C1CCN(Cc2ccncc2)CCCC(C(=O)Nc2cccc(F)c2)CCN1 (stereo not drawn),"inconclusive: 31.6 µM [inhibitor, single point]",
COc1ccc(CC(=O)NC2CCCN(c3cc(-c4ccc(F)cc4)[nH]n3)C2)cc1OC (stereo not drawn),"inconclusive: 17.8 µM [inhibitor, single point]",
NC(=NCCc1ccccc1)NC(=O)c1cc(Cl)ccc1O,"inconclusive: 35.5 µM [inhibitor, single point]",
O=C(c1ccc(OCc2cn3ccccc3n2)cc1)N1CCN(c2ccccn2)CC1,"inconclusive: 28.2 µM [inhibitor, single point]",
Cc1nn(CN2CCN(S(=O)(=O)c3cccc(Cl)c3Cl)CC2)c(=O)c2ccccc12,inactive,
O=C(NCc1ccc(Cl)cc1)C1CCN(c2cc(C(F)(F)F)ncn2)CC1,"inconclusive: 22.4 µM [inhibitor, single point]",
Cc1ccc(OCC(=O)NCC2(N3CCOCC3)CCCCC2)cc1C,"inconclusive: 2.51 µM [inhibitor, partial curve, poor fit]",
CCn1cc(CNC(=O)c2cc(-c3ccc(C)c(C)c3)nc3ccccc23)cn1,"inconclusive: 25.1 µM [inhibitor, partial curve, poor fit]",
O=C(CCCN1C(=O)C(c2ccccc2)Oc2cccnc21)NCc1ccccc1 (stereo not drawn),inactive,
CCOc1ccc(C(C)=O)cc1CN(C)CC(=O)Nc1ccccc1Cl,"inconclusive: 17.8 µM [inhibitor, single point]",
CCn1cnnc1CCNC(=O)CC1C(=O)NCCN1Cc1ccccc1 (stereo not drawn),"inconclusive: 20 µM [inhibitor, partial curve, poor fit]",
CC(=O)Nc1ccc(CNC2(Cc3cc(CN4CCCCC4)on3)COC2)cc1,"inconclusive: 31.6 µM [inhibitor, single point]",
COc1ccc2c(c1)CCc1c(C(=O)Nc3c(C)nn(Cc4ccc(Cl)cc4)c3C)noc1-2,,inconclusive: -31.5% [inhibitor]
Cc1cc(F)ccc1-c1[nH]nc2ncc(-c3c(C)noc3C)nc12,"inconclusive: 56.2 µM [inhibitor, single point]",
